# In the RNAGym collection of RNA variant scans (doi:10.1093/nar/gkz1192):
# The source gives no read counts; variants with many changes may rest on few reads.
# B1: CPEB3 Ribozyme (parent)
# chain: UAACAGGGGGCCACAGCAGAAGCGUUCACGUCGCAGCCCCUGUCAGAUUCUGGUGAAUCUGCGAAUUCUGCUGUAUAUCUC
# Variants of: B1
# Test: self-cleavage, relative activity (ratio to wild type); higher = more cleavage; in vitro, sequencing
# Method in brief: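 After error-prone PCR and barcoding, CPEB3 ribozyme mutant libraries were transcribed with T7 RNA polymerase at 37°C for 5 hours, then given 15 min with DNase I before an EDTA stop, and they cleaved during both steps. Reverse transcription with template switching preceded Illumina sequencing. Relative activity divides a variant's cleaved/total read fraction by the unmutated ribozyme's. At least 5 reads were required per variant, and three batches were averaged.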
row,Variant,self-cleavage
1,A20U U67A U69G,0.52
2,A21G A35C A56G,0.03
3,A20U U26A A45G U66A C68U,0.23
4,A21G A28G U31A A35U U60A,0.2
5,A21G A28U A35G U49A,1.01
6,A20U U25A U54A,0.05
7,A20U U43A G46U U54C G63A A77U,0.04
8,A21G A56C U74C,0.58
9,A21G A28G U43C,0.26
10,A21G A45G U49C A75G,0.16
11,A21G A28G G33C U43C U49C C68A U78A,0.03
12,A21G A35G U67A,0.92
13,A21G A47G G53C A56G U72C,0.15
14,A21G A35U U43C A45G G52A C62G,0.27
15,A20U U51A C59G U78C,0.16
16,A21G A28G U41C U80G C81U,0.33
17,A20U U76C U78A,0.53
18,A20U U25C U31A U49C,0.18
19,A20U U26A U58C U72C,0.11
20,A20U U41A A57G U60C,0.08
21,A21G A57C U72C U78C,0.23
22,A21G A45U C50A U80C,0.15
23,A21G A35G U41A U51C A57G,0.18
24,A21G A47G U49C A56U U66C,0.25

row,Variant,self-cleavage
1,A21G A45G U60C U76A,0.41
2,A21G A45U U51A U78C,0.12
3,A20U U41C A57G,0.2
4,A20U U41C A57C,0.1
5,A21G A28G A45C U60C C62U U69C,0.06
6,A21G A28G U41C U80A,0.25
7,A20U U43C A47G U51C U54C,0.18
8,A21G A56G G73U U74C,1.07
9,A20U U26A C29U A35G A45U A64U,0.08
10,A21G A47G A65G U67A,0.1
11,A20U U25C A35G C50U,0.25
12,A21G A56G U72A,0.14
13,A20U U26C G30U,0.16
14,A20U U51C U58C,0.12
15,A20U U26C C32A C71A U72C,0.09
16,A21G A57G A64U,0.24
17,A20U U51A A77U U80A,0.33
18,A21C G24A A28G U51G G55U,0.04
19,A20U U31A U41C G55A A65G U72A G73A,0.09
20,A21C U60C U78C,0.08
21,A20U U26A U31C U41A,0.56
22,A21G A28G A35U U43C U67C,0.1
23,A20U U43A C81U,0.4
24,A21G A35G A57G U60C U80C,0.38

row,Variant,self-cleavage
1,A20U U69C U80A,0.29
2,A21G A28U U80C,0.55
3,A21G A64G U74A A75U,0.69
4,A20U U31C A65G,0.15
5,A20U U58C U72C,0.2
6,A21G A64G U74C,0.75
7,A20U U26C U31C C38U,0.23
8,A21G A64U U80A,0.25
9,A20U U25C U67C,0.06
10,A21C C32U C38U U43C A56G,0.06
11,A20U U41A U48C A56G A57G A64U U80C,0.1
12,A20U U60C C79U,0.12
13,A20U U43A U60A,0.2
14,A20U U25C A45G,0.29
15,A21G A45U U54G,0.22
16,A21G A35U C38A U72C,0.28
17,A21G A28G U31C U78C,0.07
18,A21G C23G A35U U58C U60C C62U,0.02
19,A20U U58C A75G,0.17
20,A21G A56U U72A U76A,0.43
21,A21C U48C C71U,0.11
22,A21G A35G U54A A64G,1.15
23,A21G A35G U43C A45G,0.57
24,A21G A56G U76C,0.49

row,Variant,self-cleavage
1,A21G A56G U76A,0.75
2,A21G A28G U58C U80A,0.45
3,A21C U51G A75G,0.07
4,A20U U25C U76C,0.28
5,A21G A28G A35G A56G,0.64
6,A21G A56G U72G U76A,0.2
7,A20U U43C U58A,0.13
8,A21G A45G U48C,0.29
9,A21G A35U U60A U76C,0.07
10,A21G A28U C37U,0.34
11,A20U U25C A35U U49A U67C,0.1
12,A21G A28G G55U U72C,0.18
13,A21C A35G U54A U78C,0.43
14,A21G A35G G52A,1.13
15,A20U U31A U78C,0.11
16,A21C C40U A65G U74A,0.09
17,A21G A57G U69A U80C,0.15
18,A20U U31C U43C U48C U60C,0.07
19,A20U U51A U74C,0.44
20,A20U U25C A56U A57G,0.12
21,A21G A35U U69C,0.92
22,A21G A35U A45G U51C U69A,0.09
23,A20U U67C U78A,0.15
24,A20U U25C A45U U60G A64G,0.04

row,Variant,self-cleavage
1,A20U U41C A57G U74C,0.34
2,A20U U60C A64G U72A,0.1
3,A21G A35U A64U,0.08
4,A21G A45U U49G A64G,0.61
5,A21G A65G C68G U69A,0.12
6,A21G A45G A47G U60C U72C,0.46
7,A21C A57G U58A,0.34
8,A21C A57G G73A,0.27
9,A21G A45G U72C U78C,0.74
10,A20U U41A A64U A77U,0.06
11,A20U U51A G63A A64G U69C,0.13
12,A20U U54A U72A,0.13
13,A20U U51G A65G U74C,0.19
14,A21G A35U C40A C68A U78G,0.04
15,A21G A35G G55C,0.84
16,A21G A65G G73A,0.21
17,A21G A28C C39G A57G C79G,0.33
18,A21G A35G U60C U72C,0.54
19,A21G A28G U48C A56G,0.21
20,A21G A28U G30A A35G U41C U74A,0.16
21,A20U U69C G70C,0.07
22,A21C A35U G53U,0.13
23,A20U U26A A45U U67C,0.1
24,A20U U25C G33A,0.33

row,Variant,self-cleavage
1,A20U U26C A47U U60C,0.08
2,A21C U48A C50A,0.08
3,A21G A28G U41G U67A,0.29
4,A20U U48A U74C,0.34
5,A21G A28G U41A U48C,0.08
6,A20U U26A G36U A77U,0.11
7,A21G A28G U43C G52A A65G A77G,0.05
8,A21G A35U U51G,0.24
9,A20U U54C U58A,0.23
10,A21G A64G U72A,0.43
11,A21G A45U U49C U54C U60A,0
12,A21G A28G U31A U60G U80A,0.03
13,A21G A56U U72C,0.18
14,A21G A56U U72A,0.09
15,A21G A28C A56G U69C C71U,0.08
16,A20U U26C U41G U49A U66C,0.13
17,A21C C23U U25C A56U U58C U67C,0.05
18,A21G A45C G53C,0.1
19,A21G A45U U80C,0.52
20,A21G A35U U54A A56U U76C,0.12
21,A20U U60C C68G,0.23
22,A20U U43A A45U C62A A64C,0.14
23,A20U U25C G61C,0.19
24,A21G A57G U60C U69G,0.2

row,Variant,self-cleavage
1,A20U U41A U78C,0.16
2,A20U U31A U41C G55A G73A,0.09
3,A21G A45G U69C,0.41
4,A21G A35U U41A,0.25
5,A21G A35G G63A A77G,1.17
6,A20U U31C U48C A64G,0.13
7,A20U U26C C40G U49C U69A C81G,0.05
8,A20U U58C A65G A77U,0.16
9,A21C G33A U41C G53U U58C,0.1
10,A20U U43C A56G C59U U60A U78A,0.08
11,A20U U25C A65G,0.27
12,A20U U25C U49A G61A A65G,0.1
13,A21G A28G U41A U69C U72C U78G,0.06
14,A21C U31C A64G,0.07
15,A21C A57G U60C U72A,0.19
16,A21G A28G U51C U58C U78C,0.24
17,A21G A56U U72C U74C,0.18
18,A21G A47U A57G C59U,0.08
19,A21G A35G U60A,0.68
20,A20U U26A A45G,0.11
21,A21G A28G A45G U51C U54A,0.15
22,A21G A35G U51G U69C,0.51
23,A21G A45C G61C,0.12
